This is one part of the list. The full chains were built here from the parent and the listed change. Inactive controls read about 0.05.
B1: TEV protease; numbered along this chain (parent)
chain: MGESLFKGPRDYNPISSSICHLTNESDGHTTSLYGIGFGPFIITNKHLFRRNNGTLVVQSLHGVFKVKDTTTLQQHLVDGRDMIIIRMPKDFPPFPQKLKFREPQREERICLVTTNFQTKSMSSMVSDTSCTFPSGDGIFWKHWIQTKDGQCGSPLVSTRDGFIVGIHSASNFTNTNNYFTSVPKNFMELLTNQEAQQWVSGWRLNADSVLWGGHKVFMVKPEEPFQPVKEATQL

Variants of: B1
Assay: raw area under fraction-flipped curve 0-4 h after induction (AUC4h, not background-subtracted), DNA-recorder readout of cleavage of the substrate (dimensionless); higher = more cleavage of the substrate by the protease variant
Details: temperature: 34 °C; time window: 0-4 h after rhamnose induction
Protocol: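 In vivo DNA recorder in E. coli TOP10(DE3) ΔrhaA at 34 °C. Each TEVp single-site mutant (parent TEVp 0) is paired with a single-site variant of the 7-mer TEVs (canonical ENLYFQ|S). The substrate sits between flexible linkers in a Bxb1-sfGFP-TEVs-SsrA fusion, so cleavage stabilises Bxb1 and speeds flipping of a recombination array, read by NGS. The value is the raw area under the fraction-flipped curve over 0-4 h after rhamnose induction (AUC4h), with ≥20 reads per time point. It is not background-subtracted; inactive controls average about 0.047.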
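Note: Bxb1 expression induced with 0.2% (w/v) L-rhamnose at OD600 near 0.5, cultures sampled hourly, flipped fraction per protease–substrate barcode pair counted by paired-end Illumina sequencing.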

Row | Variant | area with substrate CNLYFQS | area with substrate HNLYFQS | area with substrate INLYFQS | area with substrate KNLYFQS | area with substrate LNLYFQS | area with substrate MNLYFQS | area with substrate NNLYFQS | area with substrate PNLYFQS | area with substrate SNLYFQS | area with substrate TNLYFQS | area with substrate VNLYFQS | area with substrate WNLYFQS | area with substrate YNLYFQS | area with substrate GNLYFQS | area with substrate RNLYFQS | area with substrate FNLYFQS | area with substrate QNLYFQS
1 | F41H | 0.0723 | 0.0627 | 0.0609 | 0.0676 | 0.0436 | 0.0773 | 0.0592 | 0.0598 | 0.0621 | 0.0628 | 0.0774 | 0.0564 | 0.0548 | – | – | – | –
2 | I19A | 0.0716 | 0.0639 | 0.0645 | – | 0.0541 | – | 0.0649 | 0.0613 | – | 0.0861 | 0.0676 | 0.0508 | 0.0418 | 0.0559 | 0.0753 | – | –
3 | G37Y | 0.0591 | 0.0512 | – | 0.0646 | 0.0465 | 0.0476 | – | 0.0527 | – | 0.0552 | – | 0.0456 | – | 0.0558 | – | – | –
4 | G37H | 0.058 | 0.053 | – | 0.0481 | – | – | 0.0603 | – | 0.0763 | – | – | 0.0583 | – | – | – | – | –
5 | S17T | 0.0641 | 0.0805 | 0.0712 | 0.0616 | – | 0.0742 | 0.0739 | 0.0685 | – | 0.0488 | 0.0507 | 0.0583 | – | 0.0841 | – | 0.0801 | –
6 | S17I | 0.0579 | 0.0573 | – | 0.0599 | 0.0618 | – | 0.0575 | 0.0756 | 0.065 | 0.0566 | 0.0616 | 0.0551 | – | 0.0611 | 0.0505 | – | –
7 | Y34R | 0.0592 | 0.0613 | – | – | 0.0564 | 0.0619 | – | 0.0669 | 0.0664 | – | – | 0.0678 | – | – | – | – | 0.0557
8 | Y34S | 0.0576 | 0.0574 | – | – | 0.0565 | – | 0.0485 | 0.0621 | 0.0595 | 0.0579 | 0.0703 | 0.054 | 0.0507 | – | – | 0.0561 | –
9 | Y34V | 0.0512 | – | 0.0393 | – | – | – | – | 0.0583 | 0.0379 | – | 0.0907 | 0.0512 | – | – | – | 0.0566 | –
10 | Y34A | 0.0558 | – | – | 0.0652 | 0.0611 | – | – | – | 0.05 | – | – | 0.0506 | 0.0571 | – | – | – | –
11 | R51Y | 0.0717 | – | – | – | 0.0716 | 0.0821 | 0.0568 | – | – | 0.0784 | – | – | 0.0294 | – | – | – | –
12 | R51P | 0.083 | 0.0638 | 0.0741 | – | 0.0666 | 0.0608 | – | 0.0616 | – | 0.0598 | – | – | – | 0.0581 | 0.0565 | 0.0558 | –
13 | R51W | 0.13 | 0.0656 | – | 0.0814 | – | – | 0.0768 | 0.0679 | – | 0.072 | 0.0717 | 0.0464 | – | – | – | – | –
14 | D27M | 0.0782 | 0.0533 | 0.0637 | – | 0.063 | 0.0499 | – | 0.0651 | 0.0599 | – | 0.0623 | 0.0676 | – | 0.0719 | – | 0.0647 | –
15 | D27N | 0.0586 | 0.0602 | – | 0.0533 | 0.0624 | 0.0416 | – | 0.0624 | 0.0646 | – | – | 0.0472 | 0.0598 | 0.0507 | 0.0548 | 0.0437 | –
16 | F38H | 0.0639 | 0.0561 | 0.0696 | 0.0605 | 0.0727 | 0.0521 | – | 0.0673 | – | 0.0936 | 0.0473 | 0.0572 | 0.0685 | 0.0571 | – | – | –
17 | F38Q | 0.0824 | 0.0601 | 0.0621 | – | 0.0486 | 0.0559 | 0.0589 | – | 0.0681 | 0.0719 | 0.0463 | 0.051 | 0.0539 | 0.0638 | – | – | 0.0638

Row | Variant | area with substrate CNLYFQS | area with substrate HNLYFQS | area with substrate INLYFQS | area with substrate KNLYFQS | area with substrate LNLYFQS | area with substrate MNLYFQS | area with substrate NNLYFQS | area with substrate PNLYFQS | area with substrate SNLYFQS | area with substrate TNLYFQS | area with substrate VNLYFQS | area with substrate WNLYFQS | area with substrate YNLYFQS | area with substrate GNLYFQS | area with substrate RNLYFQS | area with substrate FNLYFQS | area with substrate QNLYFQS
18 | P40V | 0.066 | 0.0609 | – | 0.0824 | 0.0638 | 0.0772 | – | – | 0.0573 | 0.0687 | 0.067 | 0.0544 | 0.0685 | 0.0794 | – | 0.0505 | –
19 | I36K | 0.0345 | – | 0.0275 | 0.0456 | 0.0521 | – | 0.0322 | – | – | – | – | 0.0374 | – | – | – | 0.0488 | –
20 | S18H | 0.0634 | 0.0667 | – | 0.0658 | – | – | 0.0637 | 0.0569 | – | 0.0608 | – | 0.0035 | 0.0543 | – | – | – | –
21 | F6P | 0.0668 | 0.0445 | – | 0.0731 | 0.0522 | – | – | 0.0656 | – | 0.0585 | 0.0642 | – | 0.0581 | 0.0619 | – | – | –
22 | F6S | 0.0745 | 0.061 | – | – | – | – | – | – | – | 0.0675 | 0.0726 | 0.0508 | 0.0806 | – | – | 0.0639 | –
23 | F6G | 0.0709 | 0.0674 | 0.0668 | 0.0604 | 0.0637 | – | 0.0693 | – | – | – | – | 0.0491 | – | – | – | 0.0622 | –
24 | F6I | 0.062 | 0.055 | – | – | 0.0659 | – | – | – | 0.0517 | 0.0699 | 0.0796 | – | – | – | – | – | 0.0463
25 | F6D | 0.0932 | – | – | 0.0685 | 0.0713 | – | – | 0.0682 | 0.117 | 0.0674 | – | 0.0527 | – | 0.0755 | – | 0.0592 | –
26 | F6W | 0.0595 | 0.0574 | 0.058 | – | 0.057 | – | – | – | – | 0.0674 | – | 0.0409 | – | – | – | 0.0849 | –
27 | T30P | 0.057 | 0.0695 | 0.0455 | 0.056 | – | 0.0628 | – | – | 0.0747 | 0.0512 | – | 0.0524 | 0.0586 | 0.0529 | – | 0.0616 | 0.063
28 | T30E | 0.078 | – | 0.0744 | – | 0.0837 | – | 0.0505 | 0.0553 | 0.0607 | 0.0691 | 0.0678 | 0.0613 | – | 0.0521 | 0.06 | – | –
29 | T30I | 0.0714 | 0.0691 | 0.0492 | 0.0598 | 0.0733 | – | – | 0.0613 | – | – | – | 0.0611 | – | – | – | 0.0506 | –
30 | P9I | 0.0613 | 0.0743 | 0.0509 | 0.0634 | – | 0.0689 | 0.0484 | – | 0.0792 | – | – | – | – | 0.0713 | – | – | 0.0671
31 | N53Y | 0.0713 | – | 0.0742 | 0.0422 | 0.0601 | 0.0619 | 0.06 | 0.0666 | 0.0645 | 0.0571 | 0.0615 | 0.0661 | – | 0.0966 | 0.0557 | – | –
32 | N53W | 0.057 | 0.0666 | – | 0.0685 | 0.0622 | – | 0.0525 | – | 0.0497 | 0.068 | – | 0.051 | 0.0509 | 0.0577 | – | – | 0.0322
33 | N53F | 0.0477 | 0.083 | 0.0209 | – | 0.0735 | 0.0764 | 0.0623 | 0.054 | – | 0.0643 | 0.0466 | 0.0512 | 0.0614 | – | – | – | 0.0608
34 | T23D | 0.0631 | 0.0622 | 0.0563 | – | 0.0615 | 0.0413 | – | 0.0537 | 0.0713 | 0.0611 | – | 0.0584 | 0.0602 | – | – | – | 0.0627

— the supplement of paper PMC12217912
